This is one part of the list.

The target of this experiment is T1, OsWOX13 (Oryza sativa, UniProt Q5QMM3 1-267).
T1 sequence: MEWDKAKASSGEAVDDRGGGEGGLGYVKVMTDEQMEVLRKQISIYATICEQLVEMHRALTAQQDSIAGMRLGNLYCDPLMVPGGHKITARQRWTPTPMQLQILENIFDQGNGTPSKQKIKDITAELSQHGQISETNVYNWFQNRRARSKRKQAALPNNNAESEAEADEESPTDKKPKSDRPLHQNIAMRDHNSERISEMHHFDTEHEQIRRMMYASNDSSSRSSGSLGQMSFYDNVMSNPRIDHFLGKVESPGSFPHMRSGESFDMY
As to the kind of experiment: protein-binding microarray (RPBM); PBS, 2% BSA, 51.3 ng/ul salmon testes DNA, 50 uM zinc acetate, 200 nM TF, 25 C, 1 h; high values mean tight binding. As to conditions: protein: recombinant; tags: N-terminal polyhistidine and DsRed monomer fusion (pET32a); label: CyDye5-dUTP incorporated in the synthesized complementary strand; 3' TTTTT single-stranded linker to array surface; dsDNA, one strand shown. In outline:
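In PBS with 2% BSA, salmon testes DNA and 50 µM zinc acetate, 200 nM protein was incubated on a custom Agilent array at 25 °C for 1 h and then washed off. The array had been made double-stranded by primer extension with Cy5-dUTP and blocked with 2% BSA. The proteins were transcription factors fused N-terminally to polyhistidine and DsRed, expressed in E. coli BL21-CodonPlus and purified on Ni–NTA. The binding signal is per-feature fluorescence intensity (arbitrary units) from an Axon 4000B scanner.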
In the case of “AATGATAGGGGACATAGAATAATTTGTCTTATAGTGCTAACGGAGTCACCTAGTGCAG”, the binding signal was 10200 fluorescence intensity (a.u.).
The value for “CAGAACGACAACCAATCACTTGGGAAGAGTTTACCGAAGGCGGAGTCACCTAGTGCAG” was 3980 fluorescence intensity (a.u.); that for “ATTTGACTGGAGTCTAAGAGTACAATCAAATGCCATTATCCGGAGTCACCTAGTGCAG” was 21900 fluorescence intensity (a.u.).
Regarding “AAGCTTCCTTTGATTGATCCGACTCCACCAAGAACACGATCGGAGTCACCTAGTGCAG”, the binding signal was 22000 fluorescence intensity (a.u.).
For “TATTATAATTTTCATGAATGGGTATTTCAGTTCCTTTTAGCGGAGTCACCTAGTGCAG”, the binding signal is 8170 fluorescence intensity (a.u.).
As to “GAGAGAAAGAGATTGATTTTGATTATACTAGTTGGTTAGTCGGAGTCACCTAGTGCAG”, the binding signal was 16300 fluorescence intensity (a.u.).
The value for “ATCTTAATTAATCATGTACTACTGGTTTTACACATTATGTCGGAGTCACCTAGTGCAG” was 29000 fluorescence intensity (a.u.).
Take “ATACTATGTTAATTTGTCTGTGTCCTAATGACGCACCATACGGAGTCACCTAGTGCAG”: the binding signal was 5570 fluorescence intensity (a.u.).
For the sequence “ATTAGCAAATAATTAATTAATCACGTGCTAATAGACTGCTCGGAGTCACCTAGTGCAG”, the binding signal is 41400 fluorescence intensity (a.u.).
The figure for “ACTTTATCTAATTTAATTGCACCACGTAGGGAGAGCTGCCCGGAGTCACCTAGTGCAG” is 16400 fluorescence intensity (a.u.); for “ATGAATGAGCTATTAGATTGGCTCTAGATGGATTAGAGCTCGGAGTCACCTAGTGCAG” it is 25900 fluorescence intensity (a.u.); for “CTTTTATTAATTATTATAAATGCTATGCACATGCCACGTTCGGAGTCACCTAGTGCAG” it is 25300 fluorescence intensity (a.u.).
For the sequence “CCTGATTTCTAGCGAAACCGACCAGAATCCCTATTGGGCCCGGAGTCACCTAGTGCAG”, the binding signal is 21900 fluorescence intensity (a.u.).
The value for “TGTGCTGATTAAATGTGAGAGGCCACAGACTTGATGATATCGGAGTCACCTAGTGCAG” was 12200 fluorescence intensity (a.u.); that for “TATATATTTATCTAAATTGATGTGAAATACTCATTTGGAACGGAGTCACCTAGTGCAG” was 3280 fluorescence intensity (a.u.).
The figure for “CCATATAATTTCGATCCACCAATCACAGCACCATCGATTTCGGAGTCACCTAGTGCAG” is 10100 fluorescence intensity (a.u.).
Regarding “GTTTACATCCATTGATTAATTTAATTAGCTGCAAGAGCAACGGAGTCACCTAGTGCAG”, the binding signal was 37200 fluorescence intensity (a.u.).
Take “CATTTCTATGATTGTTTCCCAGCCTATGCGAGTAGCAAGACGGAGTCACCTAGTGCAG”: the binding signal is 17900 fluorescence intensity (a.u.).
The value for “TTAGTGCTTAAATGATTAATCTATGGTCTAAATTATCTTTCGGAGTCACCTAGTGCAG” was 7610 fluorescence intensity (a.u.); that for “CAAAATAAACGACGATTGAATTTTGCAAATTAACCTTGTACGGAGTCACCTAGTGCAG” was 22600 fluorescence intensity (a.u.); that for “CAATCAAATTAATTACCATTCATCCTCTTAATTTAGTTTGCGGAGTCACCTAGTGCAG” was 19700 fluorescence intensity (a.u.).
The value for “TTAACGGCGAATTGATTAAGATCTGTTCAGCAGCCAGCTGCGGAGTCACCTAGTGCAG” was 24000 fluorescence intensity (a.u.); that for “CCCATCAATTAAATAGAAATAACAAAGAAATGGAAAACAACGGAGTCACCTAGTGCAG” was 5040 fluorescence intensity (a.u.); that for “GTAAGGGTTTAATTGTAATTAGGGATCACTCCAGAAGGCCCGGAGTCACCTAGTGCAG” was 13400 fluorescence intensity (a.u.).
As for “TCCCACATGATTTTGTTTTGACTGTAGTTAGTTGGTTACTCGGAGTCACCTAGTGCAG”, the binding signal was 17800 fluorescence intensity (a.u.).
The value for “ATGAATGAGTTATTAGATTGATGCCATATTTGGAAGATTACGGAGTCACCTAGTGCAG” was 16500 fluorescence intensity (a.u.).
Regarding “GGGAATACTAATTTACTTGATTACAGCGTTAACGAGGCATCGGAGTCACCTAGTGCAG”, the binding signal is 15200 fluorescence intensity (a.u.).
Consider “CAACGGTGACAGATTTGTCTAGCCTCCGACATATTGTAGCCGGAGTCACCTAGTGCAG”, for which the binding signal is 10100 fluorescence intensity (a.u.).
For the sequence “CCAACCCTGACAGACAAACAAGCGGAGTATGAGCCGTCGGCGGAGTCACCTAGTGCAG”, the binding signal is 4020 fluorescence intensity (a.u.).
The value for “TTTGATTTATATGCCATTGCCTTTGCTGAACAGAAAAGCTCGGAGTCACCTAGTGCAG” was 37600 fluorescence intensity (a.u.).
Turning to “TATGGGAATTGACTTTTAATTCCAATCTCTTGTTTGGGAACGGAGTCACCTAGTGCAG”, the binding signal was 16200 fluorescence intensity (a.u.).
With “CCAACTGATTTCTTCAAGAGCACACATCCAAACAGCGTTCCGGAGTCACCTAGTGCAG”, the binding signal was 4800 fluorescence intensity (a.u.).
The value for “ATCAAATTTAGATTTTATTAAATTTTAGTTTACAAGAGCGCGGAGTCACCTAGTGCAG” was 17900 fluorescence intensity (a.u.); that for “TGCAATAATAAAATTCCTTGATTGCCTAGAGGAGCTTGAGCGGAGTCACCTAGTGCAG” was 22300 fluorescence intensity (a.u.); that for “AAAATTACAAGATTACAACCATGGAGGGTCGTAACCAGGACGGAGTCACCTAGTGCAG” was 4520 fluorescence intensity (a.u.).
“ATCTATAATTAGAGAATGTTTACTGTAGCATCACATAGGTCGGAGTCACCTAGTGCAG”: the binding signal is 22800 fluorescence intensity (a.u.).
With “TTTAAATTAGATTATCCACACCATTAGATGAGGTGAAAGACGGAGTCACCTAGTGCAG”, the binding signal was 16500 fluorescence intensity (a.u.).
Turning to “TCCAAATGAGTCAAATTTAAGATCTGCGGAGGCACCTTCCCGGAGTCACCTAGTGCAG”, the binding signal was 4900 fluorescence intensity (a.u.).
As to “CTGTTGGTTGTGATTGTTGTGGTGGGCACGCTGTTTGAACCGGAGTCACCTAGTGCAG”, the binding signal is 3670 fluorescence intensity (a.u.).
The figure for “GGGCTAAATTTCCATTCAAGTTACATTAGGCCCAATTATGCGGAGTCACCTAGTGCAG” is 7340 fluorescence intensity (a.u.); for “GATTTAACTTGGATAAATTTTAGAGGCTAAATTTGTACTGCGGAGTCACCTAGTGCAG” it is 7380 fluorescence intensity (a.u.); for “AGCAAATGGCCTGATTTGTTAAAGATGTGGGGCCGAATTGCGGAGTCACCTAGTGCAG” it is 5860 fluorescence intensity (a.u.).
“CACAAACTCACATTCATTACTGTTACGCGTCTCCACGTGCCGGAGTCACCTAGTGCAG”: the binding signal is 3430 fluorescence intensity (a.u.).
The value for “CCGTGATTTAAATTTACTAACAACGAGAAGAATGTTAGAGCGGAGTCACCTAGTGCAG” was 39800 fluorescence intensity (a.u.); that for “GTAAACTGGAGACGACGGTTATGCAAATATTTGCGAACCACGGAGTCACCTAGTGCAG” was 4460 fluorescence intensity (a.u.); that for “TTGTTTGTTTACGCCTTAACTAATTGCTAGTAGTAGTACGCGGAGTCACCTAGTGCAG” was 5950 fluorescence intensity (a.u.).

The record behind these values is PMC7819943, “Rice protein-binding microarrays: a tool to detect cis-acting elements near promoter regions in rice”.
